# In PubChem BioAssay AID485281 (National Center for Advancing Translational Sciences (NCATS), 2010):
# The whole screen tested about 350,000 compounds, of which about 260 (0.074%) were called active. The inconclusive results got no clear call from the source; some entries with a clear call stand among them for comparison. The call rests on the fitted dose curve; in most records, active means well fitted inhibition curve with a large enough effect; inconclusive means small, poorly fitted or top-dose-only effect; inactive means no such curve, though single readings can be large or run the other way. Where the call is inconclusive, the potency comes from a doubtful curve fit.
# Biological target: Ferritin light chain (Equus caballus) (UniProt P02791)
# Chain of UniProt P02791 (P02791 whole entry, looked up): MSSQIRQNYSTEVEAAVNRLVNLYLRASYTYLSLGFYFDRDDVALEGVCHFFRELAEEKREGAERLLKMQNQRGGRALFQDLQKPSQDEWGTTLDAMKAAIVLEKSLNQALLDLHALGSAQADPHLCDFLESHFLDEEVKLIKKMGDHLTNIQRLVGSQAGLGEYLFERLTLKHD
# Experiment: qHTS Assay for Identification of Novel General Anesthetics; further: nearly all actives have a fitted effect of over 20% in size
# Conditions: apoferritin/1-aminoanthracene competitive binding, fluorescence; series mostly up to 77.5 µM
# Source text: Source: NIH Chemical Genomics Center [NCGC]
# Assay Submitter: Roderic Eckenhoff, University of Pennsylvania
# Screening Center PI: Christopher P. Austin, NIH
# Probe Development: NIH Chemical Genomics Center [NCGC]
# Anesthetic development has remained a largely empirical process. There are growing concerns about the cognitive effects of known general anesthetics and acceleration of the onset of neurodegenerative disease. The compounds' toxicity and multiple specific binding targets in the mammalian brain [4] has made them less attractive as drug leads. In this assay, a GABAergic mimetic model system, apoferritin and a profluorescent 1-aminoanthracene ligand (1-AMA), was used to construct a competitive binding assay for identification of novel general anesthetics. The assay was validated for 1-AMA using other known anesthetics, such as isoflurane (CID:3763) and propofol (CID: 4943), [6].
# [1] S.L. Bianchi, T. Tran, C. Liu, S. Lin, Y. Li, J.M. Keller, R.G. Eckenhoff, and M.F. Eckenhoff, Brain and behavior changes in 12-month-old Tg2576 and nontransgenic mice exposed to anesthetics. Neurobiol Aging 29 (2008) 1002-10.
# [2] Z. Xie, Y. Dong, U. Maeda, R.D. Moir, W. Xia, D.J. Culley, G. Crosby, and R.E. Tanzi, The inhalation anesthetic isoflurane induces a vicious cycle of apoptosis and amyloid beta-protein accumulation. J Neurosci 27 (2007) 1247-54.
# [3] P. Honegger, and J.M. Matthieu, Selective toxicity of the general anesthetic propofol for GABAergic neurons in rat brain cell cultures.
# [4] M.F. Eckenhoff, K. Chan, and R.G. Eckenhoff, Multiple specific binding targets for inhaled anesthetics in the mammalian brain. J Pharmacol Exp Ther 300 (2002) 172-9.
# [5] C.A. Butts, J. Xi, G. Brannigan, A.A. Saad, S.P. Venkatachalan, R.A. Pearce, M.L. Klein, R.G. Eckenhoff, and I.J. Dmochowski, Identification of a fluorescent general anesthetic, 1-aminoanthracene. Proc Natl Acad Sci U S A 106 (2009) 6501-6.
# [6] W.A. Lea, J. Xi, A. Jadhav, L. Lu, C.P. Austin, A. Simeonov, and R.G. Eckenhoff, A high-throughput approach for identification of novel general anesthetics. PLoS One 4 (2009) e7150.
# Three uL of reagents (free 1-AMA (50% saturated solution of 1-aminoanthracene
# in PBS) in columns 3, 4 as negative control and 1-AMA/apoferritin mixture (10 uM horse-spleen apoferritin in 50% saturated 1-aminoanthracene in PBS) in columns 1, 2, 5-48) was dispensed into 1536-well Greiner black assay plates. Compounds (23 nL) were transferred via Kalypsys pintool equipped with 1,536-pin array (10 nL slotted pins, V&P Scientific, San Diego, CA). Titration of the positive control, propofol, were delivered via pin transfer from separate control plates to the 2nd column of each assay plate. The starting concentration of the control, dissolved in DMSO, was at 160 mM, followed by two-fold dilution points in duplicate, for a total of 16 concentrations. The plates were incubated for 10 min at room temperature, and then read on an EnVision HTS multilabel reader (Perkin-Elmer, Waltham, MA) (end point read, 3 min/plate) using Fura2 BFP excitation filter (380 nm, bandwidth 10 nm) and fluorescein emission filter (535 nm, bandwidth 25 nm) set. A LANCE/DELFIA dichroic mirror with a cutoff wavelength at 400 nm was used to maximize signal accuracy and strength. Vehicle-only plates, with DMSO being pin-transferred to the entire column 5-48 compound area, were inserted uniformly at the beginning and the end of each library in order to monitor for and record any shifts in the background. Activity was computed as the normalized fluorescence response relative to free 1-AMA and 1-AMA/apoferritin complex values. Concentration-effect relationships were derived by using curve fitting algorithms developed in-house (http://ncgc.nih.gov/pub/openhts/). A four parameter Hill equation was fitted to the concentration-response data by minimizing the residual error between the modeled and observed responses.
# Potency means the concentration at half of the fitted maximal effect; tags describe the fitted curve by direction and shape.
row,Compound,Potency
1,Cn1c(O)c(C=NC2CCCCCC2)c(=O)[nH]c1=S,"inconclusive: 3.55 µM [inhibitor, full curve]"
2,Cc1ccc(C(=O)OCC(=O)NC2CCCCC2)o1,"inconclusive: 35.5 µM [inhibitor, partial curve]"
3,CC1(C)COC(Nc2cccc(Cl)c2)=N1,"inconclusive: 15.8 µM [inhibitor, partial curve]"
4,O=[N+]([O-])c1ccc(S(=O)(=O)N2CCn3cccc3C2c2ccccc2F)cc1 (configuration not stated),"inconclusive: 7.94 µM [inhibitor, full curve, poor fit]"
5,CCC(Sc1ccccc1)C(=O)OC1CC2CCC(C1)N2C (configuration not stated),inactive
6,COC(=O)[C@]1(C)CC[C@@]2(C)CC[C@@]3(C)C4=CC=C5C(=CC(=O)C(O)=C5C)[C@@]4(C)CC[C@@]3(C)C2C1 (some centres not stated),inactive
7,Cc1ccc(-n2c(CNCc3ccc(F)cc3)nc3ccccc3c2=O)cc1,"inconclusive: 50.1 µM [inhibitor, single point]"
8,CCOC(=O)c1cccc(NC(=O)c2cnc(N3CCCCC3)c3ccccc23)c1,inactive
9,O=c1[nH]c(=O)n(Cc2ccccc2Cl)c(O)c1/C=C1/C=CC=N1,"inconclusive: 25.1 µM [inhibitor, partial curve]"
10,NNCc1cccc(O)c1,inactive
11,O=C(CN1CCOCC1)c1cccc2ccccc12,"inconclusive: 31.6 µM [inhibitor, single point]"
12,Cc1ccc(C(=O)COC(=O)c2cccc(NC(=O)c3ccc(Br)cc3)c2)cc1,"inconclusive: 3.98 µM [inhibitor, full curve]"
13,CC(C)CN(CC(C)C)c1ccc(C=C2C(=O)NC(=S)NC2=O)cc1[N+](=O)[O-],"inconclusive: 39.8 µM [inhibitor, partial curve]"
14,COC(=O)C1=Nc2ccccc2/C1=C\c1c(O)n(-c2cc(OC)ccc2OC)c(=O)[nH]c1=O,"inconclusive: 35.5 µM [inhibitor, single point]"
15,O=C(Cc1ccccc1)OCC(=O)c1ccccc1,"inconclusive: 12.6 µM [inhibitor, partial curve]"
16,Clc1cccc(CN2CCCCC2c2cccnc2)c1 (configuration not stated),"inconclusive: 31.6 µM [inhibitor, partial curve]"
17,CC(C)C(=O)NC(Oc1ccccc1Cl)C(Cl)(Cl)Cl (configuration not stated),"inconclusive: 50.1 µM [inhibitor, single point]"
18,CN1C(=O)C(=Cc2ccccc2Oc2ccc(Cl)c(F)c2)C(=O)N(C)C1=O,"inconclusive: 22.4 µM [inhibitor, partial curve]"
19,CC(=O)c1ccc(OC(NC(=O)c2ccco2)C(Cl)(Cl)Cl)cc1 (configuration not stated),"inconclusive: 39.8 µM [inhibitor, partial curve]"
20,O=C1C=CC(=O)C(Cl)=C1,"inconclusive: 50.1 µM [inhibitor, single point]"
21,O=C1/C(=C\c2ccc3c(c2)OCO3)N2CCC1CC2,"inconclusive: 35.5 µM [inhibitor, partial curve]"
22,CC1CCC(C(C)C)C(OP(N)(=O)c2ccccc2)C1 (configuration not stated),"inconclusive: 35.5 µM [inhibitor, partial curve]"
23,COc1ccc(OCCOc2cccc(C=C3C(=O)NC(=O)NC3=O)c2)cc1,"inconclusive: 28.2 µM [inhibitor, partial curve]"

row,Compound,Potency
1,COc1ccccc1N=Nc1c(O)[nH]c(=S)[nH]c1=O,"inconclusive: 28.2 µM [inhibitor, single point]"
2,O=C(Nc1ccc2c(c1)OCCO2)c1cccn(Cc2cccc([N+](=O)[O-])c2)c1=O,"inconclusive: 44.7 µM [inhibitor, single point]"
3,OC1/C(=C/c2ccc(C(F)(F)F)cc2)N2CCC1CC2 (configuration not stated),"inconclusive: 35.5 µM [inhibitor, single point]"
4,Cc1cccc(N2C(=O)/C(=C/c3ccc(CN(CCC#N)S(C)(=O)=O)o3)C(=O)NC2=S)c1,inactive
5,Cc1ccc(CNS(=O)(=O)c2cc3c(cc2C)N(C)CCO3)cc1,"inconclusive: 35.5 µM [inhibitor, partial curve]"
6,ClC(Cl)=C(c1ccc(Cl)cc1)c1ccc(Cl)cc1,"inconclusive: 15.8 µM [inhibitor, partial curve]"
7,Cc1cc(C)cc(NC(=O)Cn2c(=O)oc3cc(S(=O)(=O)N4CC(C)CC(C)C4)ccc32)c1 (configuration not stated),"inconclusive: 3.55 µM [inhibitor, partial curve]"
8,OC(COCc1ccc(Cl)cc1)CN1CC=C(c2ccccc2)CC1 (configuration not stated),"inconclusive: 17.8 µM [inhibitor, partial curve]"
9,O=c1[nH]c(O)c(/C=C2\C=NN=C2c2ccccc2)c(=O)[nH]1,"inconclusive: 50.1 µM [inhibitor, single point]"
10,CCOC(=O)C(O)(c1cn(C)c2ccccc12)C(F)(F)F (configuration not stated),"inconclusive: 31.6 µM [inhibitor, partial curve]"
11,O=C(CF)NC(Nc1cccc2cccnc12)C(Cl)(Cl)Cl (configuration not stated),"inconclusive: 35.5 µM [inhibitor, partial curve]"
12,CN1C(=O)C(C2c3ccccc3C(=O)N2Cc2ccccc2)C(=O)N(C)C1=O (configuration not stated),"inconclusive: 31.6 µM [inhibitor, single point]"
13,Cc1ccc(Cn2c(SCc3ccc(C(=O)NC4CCCC4)cc3)nc3ccncc32)cc1,"inconclusive: 11.2 µM [inhibitor, partial curve]"
14,CCCc1[nH]nc2c1C(c1ccc(OC)c(Cn3nnc4ccccc43)c1)C(C#N)=C(N)O2 (configuration not stated),"inconclusive: 8.91 µM [inhibitor, full curve]"
15,CC1(C)Cc2c(c(N3CCOCC3)nc3sc4c(NCc5ccccc5)nnnc4c23)CS1,"inconclusive: 22.4 µM [inhibitor, partial curve]"
16,CCCCCSc1cc(O)c(C(CNC)C(C)C)cc1OC (configuration not stated),"inconclusive: 17.8 µM [inhibitor, partial curve]"
17,CCC[N+]12CCC(CC1)C(C(O)(c1ccccc1)c1ccccc1)C2 (configuration not stated),inactive
18,CC(Oc1cc2oc(=O)c3c(c2cc1Cl)CCCC3)C(=O)NCc1ccccn1 (configuration not stated),"inconclusive: 31.6 µM [inhibitor, partial curve]"
19,COc1ccc(C2NCc3ccccc3-n3cccc32)cc1 (configuration not stated),"inconclusive: 35.5 µM [inhibitor, single point]"
20,Cc1cc(OCc2ccc([N+](=O)[O-])cc2)c2c3c(c(=O)oc2c1)CCCC3,inactive
21,COc1ccc(CNC(=O)c2ccc(C(C)C)cc2)cc1,"inconclusive: 25.1 µM [inhibitor, partial curve]"
22,Nc1ccc(Br)cc1C(=O)c1ccccc1,"inconclusive: 25.1 µM [inhibitor, partial curve]"
23,Cc1cccc(NC(=O)c2cccc(NS(=O)(=O)c3ccc(Cl)cc3)c2)c1,"inconclusive: 12.6 µM [inhibitor, partial curve]"

row,Compound,Potency
1,Cc1ccc(/C=C2/C(=O)NC(=O)N(CC3CCCO3)C2=O)s1 (configuration not stated),inactive
2,OC(c1ccccc1)(c1ccc(Cl)cc1)C1CN2CCC1CC2 (configuration not stated),inactive
3,CC1=CC(=Cc2sc3ccccc3[n+]2C)C=C(C)O1,"inconclusive: 20 µM [inhibitor, partial curve]"
4,NC(=O)Cn1cc(C=C2C(=O)NC(=O)NC2=O)c2ccccc21,inactive
5,CN(C)C(=O)OCc1n(C)cc[n+]1C,inactive
6,C=CCN1C(=O)/C(=C/c2ccc(Br)s2)C(=O)NC1=S,"inconclusive: 35.5 µM [inhibitor, single point]"
7,COc1ccc(CN2CCCCC2c2cccnc2)cc1C (configuration not stated),"inconclusive: 35.5 µM [inhibitor, partial curve]"
8,CC(C)c1cccc(O)c(=O)c1,"inconclusive: 35.5 µM [inhibitor, single point]"
9,Cc1nc2nc(SCC(=O)N3CCC4(CC3)OCCO4)nn2c(C)c1Cc1ccccc1,"inconclusive: 28.2 µM [inhibitor, partial curve]"
10,CC1(C)OC(c2ccccc2)=C/C(=C/C=C2C(=O)NC(=O)NC2=O)O1,"inconclusive: 31.6 µM [inhibitor, partial curve]"
11,CN1CCN(c2ccc([N+](=O)[O-])c(N/N=C3\CN4CCC3CC4)c2)CC1,"inconclusive: 56.2 µM [inhibitor, single point]"
12,Cc1sc2c(c1C)C(c1ccc(C(C)(C)C)cc1)=NCC(=O)N2CC(=O)Nc1nccs1,"inconclusive: 28.2 µM [inhibitor, partial curve]"
13,CCCCC/C=C\C/C=C\C/C=C\C/C=C\CCCCCC(=O)NCCO,"inconclusive: 25.1 µM [inhibitor, partial curve]"
14,CCn1cc(C(=O)NCCc2ccc(OC)c(OC)c2)c(=O)c2cc(S(=O)(=O)N(C)C3CCCCC3)ccc21,"inconclusive: 14.1 µM [inhibitor, partial curve]"
15,COc1c(C)cc(C(=O)C2CCCN(Cc3cccc(C)n3)C2)cc1C (configuration not stated),inactive
16,Nc1nc(SCc2ccc(Cl)cc2Cl)n[nH]1,"inconclusive: 56.2 µM [inhibitor, single point]"
17,CCOC(=O)C(O)(c1ccc(NC(=O)Oc2ccccc2)cc1)C(F)(F)F (configuration not stated),"inconclusive: 50.1 µM [inhibitor, single point]"
18,COc1ccccc1-n1c(/C=C/c2ccccc2)nc2ccccc2c1=O,inactive
19,CN1CCN(Cc2cn3cccnc3n2)CC1,inactive
20,O=C(OCCCCN1C(=O)c2ccccc2C1=O)c1ccc(Br)o1,"inconclusive: 35.5 µM [inhibitor, partial curve]"
21,CCOC(=O)c1ccc(NC(=O)Nc2cc3c(cc2N2CCCCC2)n(CC)c(=O)n3CC)cc1,"inconclusive: 1 µM [inhibitor, full curve, poor fit]"
